# Experimental data reported in the supplement of paper PMC4894684.
# Where “and” joins values, the source holds several entries; their conditions need not be identical. Identical values can stand only once. Counter-ions that a name gives are not always drawn. ± gives the standard deviation of the averaged measurements. Among all 1,000 compounds or so, about 15 (2%) showed an effect of 50% or more. Some of the results follow.
# Tested on: HFF
# Test: uninfected host cell viability relative to vehicle control; higher = less host cell toxicity
# Settings: 5 µM; 72 h; oxygen 21 %
# 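Note: confluent HFF monolayers, run in parallel with the Toxoplasma growth screen as a host toxicity counterscreen.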
row,Compound,uninfected host cell viability
1,O=C(O)Cc1nn(Cc2ccc(Br)cc2F)c(=O)c2ccccc12 [Statil],74.548 ± 0.058%
2,COc1cccc(CCc2ccccc2OCC[C@@H]2C[C@@H](O)CN2C)c1,87.1 ± 6%
3,O=C(O)C1CCCN(CCC=C(c2ccccc2)c2ccccc2)C1 (configuration not stated),90.3 ± 2.8%
4,O=C(O)COCCN1CCN(C(c2ccccc2)c2ccc(Cl)cc2)CC1 (configuration not stated) [Cetirizine dihydrochloride],85.4 ± 2%
5,NC1CCN(c2cccc(Cl)n2)CC1,84.88 ± 0.2%
6,CC(NC(=O)c1ccccc1/N=C/c1c(O)ccc2ccccc12)c1ccccc1 (configuration not stated) [Sirtinol],89.09 ± 0.58%
7,CC(C)NCC(O)COc1ccc(CCOCC2CC2)cc1 (configuration not stated) [Betaxolol hydrochloride],85.7 ± 9.1%
8,COc1cc2ncn(-c3cc(OCc4ccccc4C(F)(F)F)c(C(N)=O)s3)c2cc1OC,83.8 ± 1.1%
9,OC[C@H]1O[C@@H](n2cnc3c(NC4CCCC4)ncnc32)[C@H](O)[C@@H]1O [N6-Cyclopentyladenosine],98.17 ± 0.2%
10,CC1(C)CCC(C)(C)c2cc(C3(c4ccc(C(=O)O)cc4)OCCO3)ccc21,93.1 ± 2.3%
11,N#C/C(=C\c1ccc(O)c(O)c1)C(=O)OCCc1cccs1,77.5 ± 0.84%
12,C1COC(NC(C2CC2)C2CC2)=N1 [Rilmenidine hemifumarate],89.2 ± 3%
13,N=C(N)c1ccc(N2CCN(C3CCN(CC(=O)O)CC3)CC2)cc1,89.7 ± 3.2%
14,CCc1c2c(nc3ccc(O)cc13)-c1cc3c(c(=O)n1C2)COC(=O)[C@]3(O)CC,77.3 ± 8.2%
15,Cc1cc2nc3c(=O)[nH]c(=O)nc-3n(C)c2cc1C=O,94 ± 2%
16,Cc1nn(-c2ccccc2)c(C)c1C=NN1CCN(Cc2ccccc2)CC1,98.9 ± 2.2%
17,CSc1cc2c(cc1C(F)(F)F)N(C(=O)Nc1cccnc1)CC2,82.837 ± 0.016%
18,O=C(O)C(=O)O.[NH-][C@@H]1CCCC[C@H]1[NH-].[Pt+2] [Oxaliplatin],86.7 ± 0.87%
19,N[C@@H](CSC(c1ccccc1)(c1ccccc1)c1ccccc1)C(=O)O [S-Trityl-L-cysteine],91.7 ± 1.7%
20,c1cnc(N2CCN(Cc3ccc4c(c3)OCO4)CC2)nc1 [Piribedil],96.65 ± 0.57%
21,C[C@](N)(Cc1ccc(O)c(O)c1)C(=O)O [L-(-)- α-Methyldopa],79.3 ± 1.2%
22,COC(=O)/C=C/c1cccc(N(Cc2ccc(-c3ccc(N(C)C)cc3)cc2)C(=O)C2CCCCC2)c1 [Fexaramine],96 ± 2.3%

row,Compound,uninfected host cell viability
1,CC(C)C[C@@H](C(=O)N[C@H](C(=O)OC1CCCC1)c1ccccc1)[C@H](O)C(=O)NO,97.9 ± 3.7%
2,CN1CCC[C@@H]1Cc1c[nH]c2ccc(CCS(=O)(=O)c3ccccc3)cc12 [Eletriptan hydrobromide],85.29 ± 0.68%
3,CN(C)CCC=C1c2ccccc2COc2ccccc21 [Doxepin hydrochloride],83.4 ± 3.1%
4,C[S+]([O-])c1ccc(-c2nc(-c3ccc(F)cc3)c(-c3ccncc3)[nH]2)cc1 (configuration not stated),89.4% and 88.6%
5,CC1=NN(c2ccccc2)C(=O)C1,86.7 ± 0.42%
6,CN(C)C/C=C(/c1ccc(Br)cc1)c1cccnc1 [Zimelidine dihydrochloride],86 ± 6.3%
7,CC(=O)N[C@@H](Cc1c[nH]c2ccccc12)C(=O)OCc1cc(C(F)(F)F)cc(C(F)(F)F)c1,100 ± 2.4%
8,Cc1ccc2c(c1)c1c3n2CCNC3CCC1 (configuration not stated) [Pirlindole mesylate],88 ± 6.3%
9,CCN(CC)CCOC(=O)c1cc(Cl)c(N)cc1OC [SDZ 205-557 hydrochloride],86.6 ± 7.2%
10,Oc1ccc(/C=C/c2cc(O)cc(O)c2)cc1 [Resveratrol],91.7 ± 3.2%
11,CCOC(=O)C1=C(COCCN)NC(C)=C(C(=O)OC)C1c1ccccc1Cl (configuration not stated) [Amlodipine besylate],88.5 ± 1.3%
12,COc1ccc(/C=C/C(=O)Nc2ccccc2C(=O)O)cc1OC [Tranilast],85 ± 1%
13,NC(=O)c1ccc2[nH]ccc2c1,88.1 ± 1%
14,CCOc1ccc(Nc2nc(-c3c(C)nc4ccccn34)cs2)cc1,73.8 ± 2.5%
15,Cc1cc(I)ccc1Nc1c(C(=O)NOCC2CC2)cc(F)c(F)c1F,83.5 ± 0.85%
16,CC[C@]1(O)C[C@H]2CN(CCc3c([nH]c4ccccc34)[C@@](C(=O)OC)(c3cc4c(cc3OC)N(C=O)[C@H]3[C@@](O)(C(=O)OC)[C@H](OC(C)=O)[C@]5(CC)C=CCN6CC[C@]43[C@@H]65)C2)C1 [Vincristine sulfate],68 ± 2.9%
17,Cc1cccc(C)c1OCC(C)N (configuration not stated) [Mexiletine hydrochloride],84.1 ± 3.1%
18,COc1ccccc1N1CCN(CCCCN2C(=O)c3ccccc3C2=O)CC1 [NAN-190 hydrobromide],86.1 ± 2.8%
19,CN1[C@@H]2CC[C@H]1C[C@@H](OC(=O)c1c[nH]c3ccccc13)C2 [Tropisetron hydrochloride],95.77 ± 0.92%
20,CC(C(=O)O)c1ccc(-c2ccccc2)c(F)c1 (configuration not stated) [Flurbiprofen],88.4 ± 2%
21,COc1cc(N)c(Cl)cc1C(=O)OCCCN1CCCCC1,89.4 ± 4.1%
22,COc1ccc(CCN(C)CCCN2CCc3cc(OC)c(OC)cc3CC2=O)cc1OC [Zatebradine hydrochloride],89.89 ± 0.32%

row,Compound,uninfected host cell viability
1,NC(N)=NC(N)=Nc1cccc(Cl)c1 [m-Chlorophenylbiguanide hydrochloride],89.3 ± 1.4%
2,C=CCc1cccc(/C=N/NC(=O)CN2CCN(Cc3ccccc3)CC2)c1O,79.7 ± 1.4%
3,CN(C)C(=O)C(CCN1CCC(O)(c2ccc(Cl)cc2)CC1)(c1ccccc1)c1ccccc1 [Loperamide hydrochloride],83.3 ± 3%
4,COc1ccccc1N1CCN(CCN2C(=O)c3ccccc3C(C)(C)C2=O)CC1 [ARC 239 dihydrochloride],93.6 ± 7.7%
5,CC[N+](CC)(CC)CCOc1ccc(/C=C/c2ccccc2)cc1,75.6 ± 0.83%
6,C/C=C1\C(=O)C[C@H]2[C@@H]3CCC4=CC(=O)CC[C@]4(C)[C@H]3CC[C@]12C [Guggulsterone],121 ± 8.2%
7,COc1ccc2c(c1OC)C(=O)O[C@@H]2[C@H]1c2c(cc3c(c2OC)OCO3)CCN1C [Noscapine hydrochloride],89.8 ± 5.4%
8,Nc1nc2ccc(OC(F)(F)F)cc2s1 [Riluzole hydrochloride],88.3 ± 3.3%
9,COc1ccc2c(c1)c(CC(=O)O)c(C)n2C(=O)c1ccc(Cl)cc1 [Indomethacin],86.8 ± 3.3%
10,OC(CCCN1CCN(c2ncc(F)cn2)CC1)c1ccc(F)cc1 (configuration not stated),110 ± 17%
11,COc1cccc(-c2cc(=O)c3ccccc3o2)c1N,87.9 ± 1.2%
12,"COC(=O)/C=C/c1cc(O)ccc1O [Methyl 2,5-dihydroxycinnamate]",84.022 ± 0.057%
13,OC(CNCC(O)C1CCc2cc(F)ccc2O1)C1CCc2cc(F)ccc2O1 (configuration not stated) [Nebivolol hydrochloride],83.9 ± 2.2%
14,CC(C)NCC(O)COc1ccccc1-n1cccc1 (configuration not stated) [Isamoltane hemifumarate],86.4 ± 2.9%
15,CCC(C)N(C)C(=O)c1cc2ccccc2c(-c2ccccc2Cl)n1 (configuration not stated),108 ± 2%
16,COc1cc2c(cc1C(F)(F)F)N(C(=O)Nc1cc(F)cc(-c3cccnc3)c1)CC2,83.6 ± 2.3%
17,Nc1nc2ccc(Cl)cc2c2nc(-c3ccco3)nn12,92.8 ± 3.7%
18,CC(C)NC[C@@H](O)COc1cccc2ccccc12 [(R)-(+)-Propranolol hydrochloride],85.3 ± 1%
19,CCC(=O)OCN1C(=O)C=CC1=O,90.82 ± 0.35%
20,Cn1ccc2cc(NC(=O)Nc3cccnc3)ccc21,84.3 ± 2%
21,CC[C@H](C)C(=O)O[C@H]1CCC=C2C=C[C@H](C)[C@H](CC[C@@H]3C[C@@H](O)CC(=O)O3)[C@H]21 [Mevastatin],81.7 ± 4.2%
22,O=C(/C=C/c1ccc(O)c(O)c1)OCCc1ccccc1 [Caffeic acid phenethyl ester],94.7 ± 4%

row,Compound,uninfected host cell viability
1,C[N+](C)(C)CC[N+]1(C)Cc2c(Cl)c(Cl)c(Cl)c(Cl)c2C1 [Chlorisondamine diiodide],83.5 ± 6.6%
2,CCN(CC)CC1CCN(c2ncc3ncnc(Nc4ccc(F)c(Cl)c4)c3n2)CC1 [BIBU 1361 dihydrochloride],88.9 ± 3.7%
3,Cc1ccc([N+](=O)[O-])cc1S(=O)(=O)N(C)C,98 ± 6.1%
4,CC(/C=C/c1cccc(Oc2ccc(F)cc2)c1)N(O)C(N)=O (configuration not stated),82.8 ± 3.7%
5,COc1ccc(C2CNC(=O)C2)cc1OC1CCCC1 (configuration not stated) [Rolipram],86.1 ± 4.7%
6,Nc1c(S(=O)(=O)O)cc(Nc2cccc3ccccc23)c2c1C(=O)c1ccccc1C2=O,80.6 ± 2.5%
7,CCCCN1CCCC1CNC(=O)c1cc(C#N)c2ccccc2c1OC (configuration not stated) [Nafadotride],84.8 ± 2.4%
8,CN(Cc1ccccc1)C(=O)[C@H](Cc1ccc2ccccc2c1)NC(=O)[C@@H]1CCCN1C(=O)Nc1ccccc1[N+](=O)[O-],87.6 ± 1.8%
9,COc1cc([C@@H]2c3cc4c(cc3[C@@H](O[C@@H]3O[C@@H]5CO[C@@H](C)O[C@H]5[C@H](O)[C@H]3O)[C@H]3COC(=O)[C@H]23)OCO4)cc(OC)c1O [Etoposide],91.8 ± 1.6%
10,O=[N+]([O-])c1cccc2cn[nH]c12 [7-Nitroindazole],84.8 ± 1.5%
11,CCCc1c(OCC(O)COc2ccc3c(=O)cc(C(=O)O)oc3c2CCC)ccc(C(C)=O)c1O (configuration not stated),93.1 ± 1.4%
12,CC(C)NCC(O)c1ccc2ccccc2c1 (configuration not stated) [Pronethalol hydrochloride],85.9 ± 2.6%
13,CNc1cc(OC)c(C(=O)NC2CCN(Cc3ccccc3)C2C)cc1Cl (configuration not stated) [Nemonapride],86.9 ± 6.9%
14,COC(=O)C1=C(C)NC(C)=C(C(=O)OCCSc2ccccc2)C1C (configuration not stated),88.24 ± 0.38%
15,Cc1cccc(C#Cc2ccccc2)n1 [MPEP hydrochloride],97.6 ± 2.2%
16,c1ccc(C(NCc2cccnc2)(c2ccccc2)c2ccccc2)cc1,116.4 ± 0.73%
17,N[C@H](C(=O)O)c1cc(O)cc(O)c1,91.2 ± 6.2%
18,Nc1nc(NCCc2ccc(O)cc2)nc2nc(-c3ccco3)nn12,92.5 ± 2.4%
19,CCn1ccnc1CC1COc2ccccc2O1 (configuration not stated) [Imiloxan hydrochloride],85.7 ± 2.1%
20,Cc1cc(C)c(/C=C2\C(=O)Nc3ccccc32)[nH]1,77 ± 2%
21,O=C1CC2(CCCC2)CC(=O)N1CCCCN1CCN(c2ncccn2)CC1 [Buspirone hydrochloride],90.2 ± 1.8%
